Experimental data as given in PubChem BioAssay AID1963576 (National Center for Advancing Translational Sciences (NCATS), 2024).
The campaign covered roughly 46,000 compounds. About 60 (0.1%) were called active. About 3% were inconclusive and are not listed. The call rests on the fitted dose curve; in most records, active means well fitted inhibition curve with a large enough effect; inconclusive means small, poorly fitted or top-dose-only effect; inactive means no such curve, though single readings can be large or run the other way. Some of the results follow.

Test: Primary qHTS assay for Inhibitors of ovarian cancer metastasis using an organotypic tumor microenvironment (TME) model. Further: nearly all actives have a fitted effect of over 65% in size.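 On activity change, negative = inhibition: plate controls were DMSO wells for no effect and tomatine positive control wells for full effect.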
Details: SKOV3ip1-GFP adhesion/invasion on 3D omental model, fluorescence; series mostly up to 45.8 µM; activity change, negative = inhibition: at the top concentration
Method in brief: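 Primary human omental fibroblast/mesothelial 3D culture pre-formed 48 h. SKOV3ip1-GFP cells added with compounds (0.36-46 umol/L), incubated 2 h RT/16 h 37 C, fixed; GFP cells quantified at 488/509 nm.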

Activity change, negative = inhibition, inactive:
Cc1ccccc1CNC(=O)CN1C(=O)C2CCCCN2c2ccc(C(=O)N3CCCC3)cc21 (centres undefined) 11.7%, COc1ccc(NC(=O)c2c(-c3ccccc3)c(-c3ccccc3)nn(C)c2=O)cc1OC -8.51%, O=C(Nc1ccc(S(=O)(=O)Nc2ncccn2)cc1)c1cc(=O)c2ccccc2o1 0.555%, Cc1ccc(C(=O)c2oc3ccccc3c2NC(=O)COc2ccc(C(C)C)cc2)cc1 -9.6%, COc1ccc(-c2cn3cccnc3n2)cc1NC(=O)Nc1ccc(Cl)cc1 -23.4%, O=C(CC1C(=O)N(c2ccccc2)C(=O)N1Cc1ccc(F)cc1)Nc1cccc(F)c1 (centres undefined) -5.58%, CCOc1ccc(NC(=O)c2ccc3c(c2)CCN3S(=O)(=O)CC)cc1 -7.12%, CCN(CC)C(=O)Cn1c(=O)cc(C)c2c(C)nn(-c3ccc(C)cc3)c21 4.28%, COc1ccc(-c2cc(-c3ccccc3)nc3c2COc2ccc(F)cc2-3)cc1 2.45%, Cc1ccc(S(=O)(=O)N2CCCc3cc(NS(=O)(=O)c4cc(C)ccc4C)ccc32)cc1 -6.97%, CC(C)c1nn2c(=O)cc(COC(=O)c3ccc(NC(=O)C4CCCCC4)cc3)nc2s1 -0.683%, CCCCN1CCc2nc(Nc3ccc(OC)cc3OC)ncc2C1 4.51%, COc1ccc(NC(=O)c2c(NC(=O)COc3ccccc3)sc3c2CCC(C(C)(C)C)C3)cc1 (centres undefined) 2%, Cc1ccc(CN(Cc2ccco2)C(=O)c2ccc(OCC(C)C)cc2)cc1 219%, Cc1nc2sccn2c(=O)c1S(=O)(=O)Nc1cc(Cl)ccc1O -9.65%, Cc1cccc(NS(=O)(=O)c2ccc3[nH]c4c(c3c2)CCCCCC4)c1 -12.7%, Cc1ccc2c(c1)N(C(=O)N1CCC(C(=O)NCCc3ccc(Cl)cc3)CC1)CC(C)O2 (centres undefined) 0.411%, Cc1ccc(C)c(N2CCN(C(=O)c3cc4c(=O)n(Cc5ccccc5)ccc4nc3C)CC2)c1 -7.38%, CCCCOc1ccc(C2=NC(c3ccncc3)=Nc3ccc(OCC)cc3N2)cc1 3.5%, CCc1ccc(NC(=O)CN2C(=O)C(c3ccc(C)cc3)=NC23CCCCC3)cc1 10.2%, CCc1ccc(CNC(=O)Cn2nc(C)n3c(cc4cc(C)ccc43)c2=O)cc1 -4.75%, Cc1cccc(Cn2cccc2CNS(=O)(=O)c2ccccc2F)c1 6.81%, Cc1ccc(Cn2c(=O)c3ccccc3n3c(-c4cccc(O)c4)nnc23)cc1 15.4%, COc1ccc(NC(=O)CSc2nc3nc(C)c(Cc4ccccc4)c(C)n3n2)cc1OC -8.25%, O=C(C1CCN(S(=O)(=O)c2cccc3nonc23)CC1)N1CCN(c2cccc(Cl)c2)CC1 -1.27%, CC(C)OCCCn1c(SCC(=O)c2ccccc2)nc2c(sc3ccccc32)c1=O 1.09%, Cc1cc(C)n2nc(CNS(=O)(=O)c3ccc(C)c(C)c3)nc2n1 2.41%, O=C(CSc1nnc2ccc3ccccc3n12)Nc1ccccc1Cl 2.28%, O=C(Cc1ccc(F)cc1)NCc1ccc2c(c1)CCN2C(=O)c1ccc(F)cc1 -7.09%, Cc1ccc2nc(COc3ccccc3NC(=O)C(C)(C)C)cc(=O)n2c1 22.9%, O=C(Nc1sc2c(c1C(=O)NCc1cccnc1)CCCC2)c1cc(=O)c2ccccc2o1 20.5%, Cc1ccc(CCNC(=O)c2cc3c(s2)-c2c(C)cccc2OC3)cc1 -20.1%, COc1cccc2c1cc1c(=O)n(CC(=O)NCc3ccc(C)o3)nc(C)n12 -2.5%, COc1cccc(-n2c(SCC(=O)Nc3c(C)cc(C)cc3C)nc3c([nH]c4ccccc43)c2=O)c1 -16.1%, CCn1c(=O)cc(SCC(=O)NCc2ccc(OC)cc2OC)c2ccccc21 -27.5%, Cc1nn(C(=O)c2cccc(Cl)c2)c(C)c1S(=O)(=O)N1CCOCC1 10.1%, COc1ccc(OC)c(NC(=O)CSc2ccc(-c3sc(C)nc3C)nn2)c1 -2.06%, COc1ccc(CCNC(=O)c2ccc3c(c2)N(Cc2ccc(F)cc2)C(=O)CS3)cc1OC 9.28%, O=C(COc1ccccc1-c1nc(-c2ccccc2)no1)Nc1cccc([N+](=O)[O-])c1 1.78%, CCOC(=O)c1c(-c2ccccc2)oc2ccc(N(C(C)=O)S(=O)(=O)c3ccc(CC)cc3)cc12 -24.3%, COc1ccc(CCNC(=O)C(=O)NCC(c2ccco2)S(=O)(=O)c2cccs2)cc1OC (centres undefined) 12%, CCC(=O)N1CCc2cc(S(=O)(=O)NC(CC(C)C)C(=O)NCCc3ccccc3)ccc21 (centres undefined) 19.6%, COc1ccc(C2=Nn3c(nc4sc(C(=O)Nc5cccc(C)c5)c(C)c4c3=O)SC2)cc1 3.01%, COc1ccc(NC(=O)c2ccc3c(c2)c(C)c(C)n3Cc2ccc(F)cc2)c(OC)c1 -6.56%, COc1cccc(CN2C(=O)c3ccccc3Sc3ccc(C(=O)NCCc4ccc(Cl)cc4)cc32)c1 2.52%, COc1ccc(-c2nn3c(-c4ccc(C)cc4)nnc3c3ccccc23)cc1 5.32%, COc1ccc(NC(=O)c2cc3c([nH]c2=O)CC(c2ccccc2)CC3=O)cc1 (centres undefined) -5.24%, COc1ccc(NC(=O)Cn2c(=O)n(-c3ccc(CC(=O)NCC4CCCO4)cc3)c(=O)c3ccccc32)c(OC)c1 (centres undefined) 10.5%, CCCOc1ccc(OC(=O)c2c(-c3ccccc3Cl)noc2C)cc1 -9.45%, Cc1cccc(-c2noc(-c3ccc(NCC4CCCO4)c([N+](=O)[O-])c3)n2)c1 (centres undefined) -1.39%, CCOC(=O)c1c(C)n(-c2ccccc2)c2ccc(OC(=O)c3ccc(OCC)c(OCC)c3)cc12 -7.57%, CN(C(=O)c1ccc2c(c1)N(Cc1ccccc1F)C(=O)c1ccccc1S2)C1CCCCC1 -5.4%, COc1ccccc1N1CCN(c2nc3ccc(C)cc3nc2-n2nc(C)cc2C)CC1 1.62%, COc1nc(-c2ccc3c(c2)OCO3)n(-c2ccc(NC(=O)CSc3ccccc3)cc2)n1 -4.66%, Cc1cc(C)cc(OCc2cc(=O)n3cc(C)sc3n2)c1 -16%, O=C(C1CCN(c2nc3ccccc3[nH]2)CC1)N1CCN(c2ccccc2)CC1 0.759%, O=C(Nc1c(C(=O)N2CCC(N3CCCCC3)CC2)oc2ccccc12)c1c(F)cccc1F -13.1%, Cn1cc(S(=O)(=O)c2ccccc2)c(=O)c2cc(F)c(N3CCN(c4ccc(F)cc4)CC3)cc21 8.86%, CN(C)S(=O)(=O)c1ccc2c(c1)N(CC(=O)N1CCCCC1)CCS2 29.5%, Cc1ccc(-c2nnc(Nc3ccc(Cl)cc3)c3ccccc23)cc1S(=O)(=O)N1CCOCC1 0.875%, COc1cccc(-n2c(SCC(=O)N3CCCCC3)nc3c([nH]c4ccccc43)c2=O)c1 -2.99%, Cc1cccc(N2CCN(C(=O)c3c(C)oc4nc(C)nc(N5CCCC5)c34)CC2C)c1 (centres undefined) -17.3%, CC(=O)Nc1ccc(NC(=O)C(Cc2ccccc2)N2Cc3ccccc3C2=O)cc1 (centres undefined) 1.53%, Cc1ccc(NC(=O)Cn2c(=O)n(CCC(=O)NCCc3ccccc3)c(=O)c3ccccc32)cc1 43.3%, Cc1ccc(Cl)cc1N1CCN(C(=O)c2cn(C)c3ccc(S(=O)(=O)N(C)C4CCCCC4)cc3c2=O)CC1 -0.693%, COc1ccc(CNC(=O)CCc2nc3cccnc3n2Cc2ccccc2)cc1 4.26%, COc1ccc(NC(=O)c2c(N)c(C(=O)c3ccc(C)cc3)n3ccccc23)cc1OC -20.1%, CC1CCC(N2CC(=O)N(C3CCCC3)C(c3ccc(Cl)cc3)C2=O)CC1 (centres undefined) 0.811%

outcome, inactive:
Cc1cccc(-n2ncc3c(Nc4ccc(C)c(Cl)c4)ncnc32)c1, COc1ccc2[nH]c3c(c2c1)CCN(C(=O)c1cccc(Cl)c1)C3c1ccc(F)cc1 (centres undefined), Cc1ccc(CSc2ncc(Cl)c(C(=O)NCc3ccccc3)n2)cc1, CCOC(=O)c1cc(-c2ccc(F)cc2)n(CC(=O)NC2CCCCCC2)c1C, CCOc1cccc2c1N[C@@H](c1ccc(C(=O)O)cc1)[C@H]1CC=C[C@@H]21, Cc1ccc(-n2nc(C)c3c(C)c(CCC(=O)NCc4ccccc4Cl)c(C)nc32)cc1C, COc1ccc2sc(N(Cc3cccnc3)C(=O)C3CCCCC3)nc2c1, O=C(Cn1c(=O)n(CC2CCC(C(=O)NCCc3ccccc3)CC2)c(=O)c2ccccc21)Nc1ccccc1 (centres undefined), CCOc1ccccc1CNC(=O)C1CCN(c2nnc(-n3c(C)ccc3C)s2)CC1, COc1ccc(NC(=O)C(Cc2ccccc2)NS(=O)(=O)c2ccc3c(c2)CCC(=O)N3)c(OC)c1 (centres undefined), CCN(CC)CCOC(=O)c1ccc(NC(=O)Cn2ncc3c2-c2cc(C)ccc2OC3)cc1, Cc1nn(-c2ccc(F)cc2)c(-n2cccc2)c1C(=O)NCCc1ccc(Cl)cc1, CCOC(=O)N1CCc2c(sc3c2c(=O)n(-c2ccccc2C(F)(F)F)c(=O)n3Cc2ccccc2C)C1, Cc1ccc(NS(=O)(=O)c2ccc(-n3cccn3)cc2)cc1Cl, CCOc1ccc(C2CC(c3c(O)n(C4CCCCC4)c(=O)[nH]c3=O)=Nc3ccccc3S2)cc1 (centres undefined), COc1cccc(CNC(=O)c2ccc(-c3nc(COc4ccccc4)c(C)o3)cc2)c1, COC(=O)c1cc2oc3ccccc3c2n1CC(=O)Nc1ccc(Cl)cc1F, O=C(COc1ccc(Cl)cc1)Nc1ccc2nc(SCC(=O)N3CCCC3)sc2c1, Cc1cccc(-c2nc(CCNC(=O)Cc3ccccc3)cs2)c1, O=C(c1nc(-c2ccc(Cl)cc2)n2c1CCCCC2)N1CCN(c2ccccc2)CC1, CCc1ccc(OCC(=O)N(Cc2ccco2)Cc2ccco2)cc1, Cc1cccc(NCc2nnc3n2CCCCC3)c1C, COc1ccccc1NC(=O)CCn1nc(-c2ccccc2)c2ccccc2c1=O, Cc1ccc(-n2ncc3c(Nc4cccc(C)c4)ncnc32)cc1, O=C(Cn1cnc(S(=O)(=O)N2CCCC2)c1)Nc1ccccc1, CCOc1ccc(CCNC(=O)C(C)n2nc(C)n3c(cc4occc43)c2=O)cc1OCC (centres undefined)
